# In the supplement of paper PMC3724861:
# This is one part of the list.
# System: T1, Caupolican (Caup) homeodomain DNA-binding domain
# T1 sequence: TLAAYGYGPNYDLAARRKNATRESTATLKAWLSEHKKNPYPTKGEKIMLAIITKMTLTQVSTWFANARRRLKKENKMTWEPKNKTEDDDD
# Experiment: PBM E-score (8-mer, recovered from the published 9-mer minima) (E-score (dimensionless, -0.5 to 0.5)); Drosophila protein; higher = stronger relative binding preference, active = 0.31 or more
# Procedure, shortened: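 An enrichment score, with higher meaning stronger, expresses relative binding preference for each short DNA word. The protein used was Caup's homeodomain DNA-binding domain (residues 214-303), produced by in vitro transcription and translation and tested at 100 nM on custom-designed protein binding microarrays. The 8-mer values were recovered from published 9-mer scores, each equal to the lower of its two constituent 8-mer scores.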
row,Sequence,PBM E-score
1,ATCCCAGA,inactive: -0.124
2,ATGGTCAC,inactive: -0.0348
3,AACCGGAC,inactive: -0.0436
4,ACGGAAAA,inactive: -0.0174
5,CGCGAGAG,inactive: -0.201
6,CGTTAAGA,inactive: 0.0227
7,CTCACAAC,inactive: 0.0395
8,ATCCTCGA,≥ 0.0345
9,TAATCGGA,inactive: 0.0419
10,AGTCACAT,inactive: 0.12
11,TGTGGTAA,inactive: 0.156
12,GAGATAAA,inactive: 0.0669
13,ACCTCAGA,inactive: -0.0211
14,AATGGATC,inactive: 0.052
15,GAGATCCC,inactive: -0.151
16,ACCGGCCA,inactive: -0.177
17,AGGCCGCC,inactive: -0.301
18,ATAGAGGA,inactive: -0.0659
19,ATGTAGCG,inactive: 0.222
20,AGGCAGTG,inactive: -0.0632
21,ACCTCTCG,inactive: -0.169

row,Sequence,PBM E-score
1,GTGGATAA,inactive: 0.044
2,GAGGTCGA,inactive: -0.115
3,AGGCCTTG,inactive: -0.121
4,AAACAACG,inactive: 0.21
5,AGGCTGGC,inactive: -0.29
6,CGGCCCGC,inactive: -0.215
7,CGGTAGAG,inactive: -0.101
8,AGAAGCCT,≥ -0.0837
9,CGGTACAA,inactive: 0.234
10,AGAATAAC,inactive: 0.118
11,AAAATATC,inactive: 0.0847
12,ACCTGAAC,inactive: 0.0824
13,GCTGATCC,inactive: -0.0755
14,AGTCCATG,inactive: 0.0703
15,ATTGCCGC,inactive: -0.0938
16,ATGGAGGG,inactive: -0.0785
17,GGCTCCCA,inactive: -0.285
18,CAACCACC,inactive: -0.0558
19,TCACCCAA,inactive: 0.0547
20,GCCGTCGA,inactive: -0.167
21,CGTTCTAA,inactive: 0.0188

row,Sequence,PBM E-score
1,AAGATGGG,inactive: -0.134
2,TATATCAA,inactive: 0.133
3,CCCATGCG,inactive: -0.134
4,AGGTCAGC,≥ 0.0422
5,CGCCTAAA,inactive: -0.117
6,AAGATTTA,inactive: 0.0578
7,GCAGCTAC,inactive: -0.0618
8,CTCTAAAA,inactive: -0.0754
9,CAAGTTAG,inactive: 0.15
10,AGTACGTC,inactive: 0.0445
11,CACGCAGC,inactive: -0.107
12,ATAGATCG,inactive: -0.0377
13,AATACTTG,inactive: 0.234
14,GATTTCGC,inactive: 0.0128
15,CCGTTGTA,inactive: 0.168
16,GCGTGTAC,active: 0.367
17,CCACGCGC,inactive: -0.239
18,GAGTTTCA,inactive: -0.012
19,CCCAAACA,inactive: 0.175
20,CGCGATTA,inactive: -0.0066
